This list was built around the results that the source calls inconclusive (neither active nor inactive); the mix of calls is not that of the screen. For part of these data: Potencies of inconclusive entries are doubtful fits and often do not repeat. For part of these data: A note “side channel” means that the fit belongs to a control or component signal, not to the main read-out. The source made the active and inactive calls. Unless noted, calls come from the whole dose curve.
How the values were obtained:
[1] = qHTS for Inhibitors of ATXN expression: Validation (AID 588378; active = well fitted curve in the direction sought with a large enough effect; inconclusive = small, poorly fitted or top-dose-only effect, or another doubt; inactive = no such curve, though single readings can be large; an effect the other way counts as inactive or inconclusive; note: potency is the fitted concentration of half-maximal effect; nearly all actives have a fitted effect of over 75% in size)
Outline: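 HEK293 cells carrying ATXN2-firefly luciferase reporter, treated with compound 24 h at 37 °C. Viability read first by CellTiter-Fluor (405/525 nm), then reporter expression by Bright-Glo luminescence; controls were a known ATXN2 expression inhibitor and a luciferase inhibitor.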

[2] = target: Estrogen receptor (Homo sapiens) (UniProt P03372); experiment: qHTS assay for small molecule antagonists of estrogen receptor alpha signaling (AID 588513; active = well fitted curve in the direction sought with a large enough effect in the signal ratio, with a control signal flat, not every such curve was filed as active; inconclusive = small, poorly fitted or top-dose-only effect, or effect the other way, or a change in a side signal; inactive = no such curve, though single readings can be large or run the other way; the % refers to the signal ratio; note: potency is the fitted concentration of half-maximal effect); conditions: ER-alpha-UAS-bla HEK293, beta-lactamase ratio, antagonist mode; activity, negative = inhibition: at 76.9 µM (top of the series)
UniProt P03372, sequence (P03372 whole entry, looked up): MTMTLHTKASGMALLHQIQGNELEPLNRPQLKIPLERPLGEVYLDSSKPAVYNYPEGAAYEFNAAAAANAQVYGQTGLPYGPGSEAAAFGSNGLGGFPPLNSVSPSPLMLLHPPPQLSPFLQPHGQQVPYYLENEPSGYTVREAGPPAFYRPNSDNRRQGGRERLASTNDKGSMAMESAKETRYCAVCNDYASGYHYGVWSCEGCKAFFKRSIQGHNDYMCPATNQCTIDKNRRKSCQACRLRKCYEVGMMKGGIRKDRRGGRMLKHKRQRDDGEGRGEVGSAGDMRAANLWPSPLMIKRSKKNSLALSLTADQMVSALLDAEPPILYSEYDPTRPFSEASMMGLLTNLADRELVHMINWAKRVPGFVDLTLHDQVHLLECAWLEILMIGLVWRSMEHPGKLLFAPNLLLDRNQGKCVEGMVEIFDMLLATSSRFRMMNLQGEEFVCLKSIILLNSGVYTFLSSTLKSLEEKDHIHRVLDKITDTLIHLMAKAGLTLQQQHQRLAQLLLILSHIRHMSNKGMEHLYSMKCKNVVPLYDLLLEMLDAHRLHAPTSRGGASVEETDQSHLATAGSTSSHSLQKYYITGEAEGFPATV
Outline: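 ER-alpha-UAS-bla GripTite HEK 293 cells in 2% charcoal/dextran-treated FBS medium; compounds titrated (1:2, duplicate), then stimulated with 0.5 nM 17-beta-estradiol for 18 h at 37C. CCF4 beta-lactamase fluorescence; Hill-fit IC50 and efficacy.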

[3] = target: Estrogen receptor (Homo sapiens) (UniProt P03372); experiment: qHTS assay for small molecule agonists of estrogen receptor alpha signaling (AID 588514); note: potency is the fitted concentration of half-maximal effect; nearly all actives have a fitted effect of over 70% in size
Outline: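 Cells were plated at 5000/well, incubated 4 hrs at 37 C, dosed with compound titration series, incubated 18 hrs at 37 C, loaded with CCF4 dye for 2 hrs at RT, then fluorescence was read.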

[4] = target: Androgen receptor (Homo sapiens) (UniProt P10275); experiment: qHTS assay for small molecule agonists of androgen receptor signaling (AID 588515; active = well fitted curve in the direction sought with a large enough effect in the signal ratio, with a control signal flat; inconclusive = small, poorly fitted or top-dose-only effect, or effect the other way, or a change in a side signal; inactive = no such curve, though single readings can be large or run the other way; the % refers to the signal ratio; note: potency is the fitted concentration of half-maximal effect); conditions: AR-UAS-bla HEK293, beta-lactamase ratio, agonist 16 h
UniProt P10275, sequence (P10275 whole entry, looked up): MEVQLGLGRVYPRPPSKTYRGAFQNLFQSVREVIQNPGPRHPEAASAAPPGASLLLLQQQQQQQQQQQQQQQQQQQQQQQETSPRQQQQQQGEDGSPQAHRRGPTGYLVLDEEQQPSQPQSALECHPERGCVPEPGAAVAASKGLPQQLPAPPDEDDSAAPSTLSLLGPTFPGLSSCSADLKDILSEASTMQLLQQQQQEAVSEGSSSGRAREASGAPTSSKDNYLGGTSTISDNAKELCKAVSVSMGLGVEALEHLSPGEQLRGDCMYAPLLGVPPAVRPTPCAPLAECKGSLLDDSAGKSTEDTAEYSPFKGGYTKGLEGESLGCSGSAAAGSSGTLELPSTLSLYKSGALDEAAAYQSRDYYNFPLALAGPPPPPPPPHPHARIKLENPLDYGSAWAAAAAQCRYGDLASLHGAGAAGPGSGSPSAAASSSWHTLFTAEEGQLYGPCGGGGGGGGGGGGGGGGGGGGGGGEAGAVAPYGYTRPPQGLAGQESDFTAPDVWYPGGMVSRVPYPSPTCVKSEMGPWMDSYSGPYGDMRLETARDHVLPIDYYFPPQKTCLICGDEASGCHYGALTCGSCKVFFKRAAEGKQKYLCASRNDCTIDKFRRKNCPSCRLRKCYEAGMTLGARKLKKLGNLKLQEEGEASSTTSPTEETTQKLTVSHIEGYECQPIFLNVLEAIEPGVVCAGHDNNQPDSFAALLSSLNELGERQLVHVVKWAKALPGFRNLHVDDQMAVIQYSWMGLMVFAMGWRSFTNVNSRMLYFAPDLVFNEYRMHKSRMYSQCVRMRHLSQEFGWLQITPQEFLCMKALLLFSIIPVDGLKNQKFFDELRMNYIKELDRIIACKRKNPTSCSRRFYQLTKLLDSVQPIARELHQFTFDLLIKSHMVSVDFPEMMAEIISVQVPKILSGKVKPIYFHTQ
Outline: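 EC50 and efficacy came from Hill fits of titrations (up to 92 uM) normalized to 30 nM R1881 as 100% and DMSO as 0%. Compound exposure was 16 h at 37 C on AR-UAS-bla HEK293 cells, with a 405/460/530 nm CCF4 fluorescence read.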

[5] = target: Androgen receptor (Homo sapiens) (UniProt P10275); experiment: qHTS assay for small molecule antagonists of androgen receptor signaling (AID 588516; active = well fitted curve in the direction sought with a large enough effect in the signal ratio, with a control signal flat, not every such curve was filed as active; inconclusive = small, poorly fitted or top-dose-only effect, or effect the other way, or a change in a side signal; inactive = no such curve, though single readings can be large or run the other way; the % refers to the signal ratio; note: % is set by controls: 0 for no effect and ±100 for the full control effect); conditions: AR-UAS-bla HEK293, beta-lactamase ratio, antagonist mode, 16 h; at 76.8 µM (top of the series)
Outline: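 Antagonist-mode qHTS: inhibition of R1881 (10 nM)-driven beta-lactamase expression in GripTite HEK 293 cells is measured after 16 h; values are Hill-derived IC50s normalized between R1881 and DMSO wells.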

[6] = target: Bile acid receptor (Homo sapiens) (UniProt Q96RI1); experiment: qHTS assay for small molecule antagonists of farnesoid X receptor signaling (AID 588526); conditions: HEK293T FXR-UAS-bla, beta-lactamase ratio, antagonist mode; activity change, negative = inhibition: at 76.7 µM (top of the series); note: potency is the fitted concentration of half-maximal effect
Outline: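 Concentration-response titrations were fitted to the Hill equation for half-maximal inhibition and maximal response, with data normalised to 50 uM chenodeoxycholic acid and DMSO control wells. Cells: FXR-UAS-bla HEK293T, dialyzed FBS.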

[7] = target: Glucocorticoid receptor (Homo sapiens) (UniProt P04150); experiment: qHTS assay for small molecule agonists of glucocorticoid receptor signaling (AID 588532; active = well fitted curve in the direction sought with a large enough effect in the signal ratio, with a control signal flat; inconclusive = small, poorly fitted or top-dose-only effect, or a change in a side signal; inactive = no such curve, though single readings can be large or run the other way; the % refers to the signal ratio; note: potency is the fitted concentration of half-maximal effect); conditions: HeLa MMTV-bla, beta-lactamase ratio, agonist, 18 h; activation: hits give high values, percent of dexamethasone control, DMSO zero
Outline: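 Titration series, up to 92 uM, applied to GRE-bla HeLa cells for 18 h at 37 C. Detection by CCF4 FRET substrate after 2 h at RT.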

[8] = target: Glucocorticoid receptor (Homo sapiens) (UniProt P04150); experiment: qHTS assay for small molecule antagonists of glucocorticoid receptor signaling (AID 588533; active = well fitted inhibition curve with a large enough effect in the signal ratio, with a control signal flat, not every such curve was filed as active; inconclusive = small, poorly fitted or top-dose-only effect, or effect the other way, or a change in a side signal; the % refers to the signal ratio;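 note: cells stimulated with 2 nM dexamethasone as agonist; potency is the fitted concentration of half-maximal effect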); conditions: HeLa MMTV-bla, GRE beta-lactamase ratio, antagonist mode, 18 h; activity change, negative = inhibition: at 76.8 µM (top of the series)
[9] = target: Peroxisome proliferator-activated receptor delta (Homo sapiens) (UniProt Q03181); experiment: qHTS assay for small molecule agonists of peroxisome proliferator-activated receptor delta signaling (AID 588534); conditions: HEK293T PPARdelta-UAS-bla, beta-lactamase ratio, 18 h; activation: at 76.7 µM (top of the series); note: potency is the fitted concentration of half-maximal effect
UniProt Q03181, sequence (Q03181 whole entry, looked up): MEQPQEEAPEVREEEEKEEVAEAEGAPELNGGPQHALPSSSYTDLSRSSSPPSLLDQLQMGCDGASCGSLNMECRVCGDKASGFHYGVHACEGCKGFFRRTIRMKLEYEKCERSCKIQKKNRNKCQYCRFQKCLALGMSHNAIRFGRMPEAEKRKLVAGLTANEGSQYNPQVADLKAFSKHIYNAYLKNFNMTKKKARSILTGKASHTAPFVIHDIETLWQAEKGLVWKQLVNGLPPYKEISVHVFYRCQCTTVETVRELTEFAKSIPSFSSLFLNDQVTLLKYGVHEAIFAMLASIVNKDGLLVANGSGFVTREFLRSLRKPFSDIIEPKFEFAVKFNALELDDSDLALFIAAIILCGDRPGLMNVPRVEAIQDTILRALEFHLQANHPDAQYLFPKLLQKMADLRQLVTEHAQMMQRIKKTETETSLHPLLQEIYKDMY
Outline: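 Fluorescence from CCF4 substrate cleavage by beta-lactamase reporter, read 2 hrs at RT, measured agonist activity. Compounds were tested with 18 hrs exposure at 37 C. Concentration-response data fitted to Hill equation.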

[10] = target: Peroxisome proliferator-activated receptor delta (Homo sapiens) (UniProt Q03181); experiment: qHTS assay for small molecule antagonists of peroxisome proliferator-activated receptor delta signaling (AID 588535; active = well fitted inhibition curve with a large enough effect in the signal ratio, with a control signal flat, not every such curve was filed as active; inconclusive = small, poorly fitted or top-dose-only effect, or effect the other way, or a change in a side signal; inactive = no such curve, though single readings can be large or run the other way; the % refers to the signal ratio); conditions: HEK293T PPARd-UAS-bla, beta-lactamase FRET ratio, 18 h; activity change, negative = inhibition: at 76.7 µM (top of the series)
Outline: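 Reporter: UAS-bla under PPAR-delta response element, HEK293T host. Medium: 2% charcoal/dextran FBS. Dosing: titration, 18 hrs, 37 C. Detection: CCF4, 2 hrs RT, 405 ex/460 and 530 em.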

[11] = target: Peroxisome proliferator-activated receptor gamma (Homo sapiens) (UniProt P37231); experiment: qHTS assay for small molecule agonists of peroxisome proliferator-activated receptor gamma signaling (AID 588536; active = well fitted curve in the direction sought with a large enough effect in the signal ratio, with a control signal flat, not every such curve was filed as active; inconclusive = small, poorly fitted or top-dose-only effect, or effect the other way, or a change in a side signal; inactive = no such curve, though single readings can be large or run the other way; the % refers to the signal ratio; note: potency is the fitted concentration of half-maximal effect); conditions: HEK293 PPARg-UAS-bla, beta-lactamase ratio, 16 h; activation: at 76.7 µM (top of the series), percent of rosiglitazone response, DMSO as zero
Outline: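 Test agents, titrated, stimulated HEK293 UAS-bla cells overnight (16 h, 37 C). Substrate CCF4 was then added for two hours at room temperature before fluorescence reading.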

[12] = target: Peroxisome proliferator-activated receptor gamma (Homo sapiens) (UniProt P37231); experiment: qHTS assay for small molecule antagonists of peroxisome proliferator-activated receptor gamma signaling (AID 588537; active = well fitted inhibition curve with a large enough effect in the signal ratio, with a control signal flat, not every such curve was filed as active; inconclusive = small, poorly fitted or top-dose-only effect, or effect the other way, or a change in a side signal; the % refers to the signal ratio;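 note: reporter cells co-stimulated with 50 nM rosiglitazone agonist during compound treatment; potency is the fitted concentration of half-maximal effect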); conditions: HEK293 PPARg-UAS-bla, beta-lactamase ratio, antagonist mode; activity, negative = inhibition: at 76.8 µM (top of the series)
Outline: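 We seeded GeneBLAzer HEK293 reporter cells at 3000 per well, allowed 6-6.5 h attachment at 37 C, then co-treated with test compound titrations and 50 nM rosiglitazone overnight (16 h). Inhibition was quantified from 460/530 nm emission ratios.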

[13] = target: Vitamin D3 receptor (Homo sapiens) (UniProt P11473); experiment: qHTS assay for small molecule antagonists of vitamin D receptor signaling (AID 588541); conditions: HEK293T VDR-UAS-bla, beta-lactamase ratio, antagonist mode; activity change, negative = inhibition: at 76.7 µM (top of the series); note: potency is the fitted concentration of half-maximal effect
[14] = target: Retinoic acid receptor RXR-alpha (Homo sapiens) (UniProt P19793); experiment: qHTS assay for small molecule agonists of retinoid X receptor alpha signaling (AID 588544); conditions: HEK293T RXRa-UAS-bla, beta-lactamase reporter, 18 h; activation: at 76.7 µM (top of the series); note: potency is the fitted concentration of half-maximal effect
UniProt P19793, sequence (P19793 whole entry, looked up): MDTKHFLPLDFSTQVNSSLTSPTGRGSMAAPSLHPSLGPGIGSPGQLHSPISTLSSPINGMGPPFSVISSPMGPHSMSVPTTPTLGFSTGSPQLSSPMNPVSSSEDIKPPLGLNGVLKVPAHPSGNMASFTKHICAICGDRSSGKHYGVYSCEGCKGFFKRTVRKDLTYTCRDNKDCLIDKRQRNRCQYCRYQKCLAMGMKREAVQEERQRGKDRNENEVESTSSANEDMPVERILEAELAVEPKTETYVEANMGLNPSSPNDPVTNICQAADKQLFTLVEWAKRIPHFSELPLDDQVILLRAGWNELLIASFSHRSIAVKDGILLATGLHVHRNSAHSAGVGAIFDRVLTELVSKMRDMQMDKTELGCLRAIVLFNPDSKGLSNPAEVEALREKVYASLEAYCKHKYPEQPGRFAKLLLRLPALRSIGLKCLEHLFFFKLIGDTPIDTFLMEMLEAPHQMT

[15] = target: Thyroid hormone receptor beta (Homo sapiens) (UniProt P10828); experiment: qHTS assay for small molecule agonists of thyroid hormone receptor beta signaling (AID 588545); conditions: TR-UAS-bla GripTite HEK 293, beta-lactamase ratio, agonist mode, 18 h; activation: at 76.7 µM, percent of T3 response, DMSO as zero; note: potency is the fitted concentration of half-maximal effect
UniProt P10828, sequence (P10828 whole entry, looked up): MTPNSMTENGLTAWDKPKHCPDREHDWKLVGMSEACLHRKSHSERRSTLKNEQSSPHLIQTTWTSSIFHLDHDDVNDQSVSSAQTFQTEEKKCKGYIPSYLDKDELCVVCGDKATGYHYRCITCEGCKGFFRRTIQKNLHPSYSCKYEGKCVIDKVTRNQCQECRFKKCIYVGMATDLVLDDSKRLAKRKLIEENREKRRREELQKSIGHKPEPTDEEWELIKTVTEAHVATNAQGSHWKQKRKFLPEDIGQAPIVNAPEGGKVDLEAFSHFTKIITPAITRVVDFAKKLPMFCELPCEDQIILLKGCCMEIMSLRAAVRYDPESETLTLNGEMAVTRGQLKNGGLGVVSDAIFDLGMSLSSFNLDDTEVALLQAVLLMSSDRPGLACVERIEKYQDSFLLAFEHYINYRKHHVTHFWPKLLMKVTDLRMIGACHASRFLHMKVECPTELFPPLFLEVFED
Outline: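 Agonist-mode beta-lactamase reporter assay, HEK 293 cells, 2% charcoal/dextran FBS; cells plated 4 hrs, compound 18 hrs at 37 C, CCF4 2 hrs RT. Normalized to 10 nM T3 (100%) and DMSO (0%); Hill fit gives EC50, efficacy.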

[16] = target: Retinoic acid receptor RXR-alpha (Homo sapiens) (UniProt P19793); experiment: qHTS assay for small molecule antagonists of retinoid X receptor alpha signaling (AID 588546; active = well fitted inhibition curve with a large enough effect in the signal ratio, with a control signal flat, not every such curve was filed as active; inconclusive = small, poorly fitted or top-dose-only effect, or effect the other way, or a change in a side signal; inactive = no such curve, though single readings can be large or run the other way; the % refers to the signal ratio; note: potency is the fitted concentration of half-maximal effect); conditions: HEK293T RXRa-UAS-bla, beta-lactamase ratio, antagonist mode
Outline: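 Beta-lactamase reporter inhibition, read as CCF4 fluorescence ratio (ex 405, em 460/530 nm) after 2 h at RT. HEK293T UAS-bla cells, 2500/well, were stimulated with 9-cis-RA at 500 or 100 nM final alongside test compound for 18 h at 37 C.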

[17] = target: Thyroid hormone receptor beta (Homo sapiens) (UniProt P10828); experiment: qHTS assay for small molecule antagonists of thyroid hormone receptor beta signaling (AID 588547; active = well fitted inhibition curve with a large enough effect in the signal ratio, with a control signal flat, not every such curve was filed as active; inconclusive = small, poorly fitted or top-dose-only effect, or effect the other way, or a change in a side signal; the % refers to the signal ratio;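 note: cells stimulated with 0.4 nM T3 agonist during compound exposure; % is set by controls: 0 for no effect and ±100 for the full control effect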); conditions: TR-UAS-bla HEK293, beta-lactamase ratio, antagonist mode, 18 h
Outline: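 TR-UAS-bla GripTite HEK293 cells in 2% charcoal/dextran FBS medium were preincubated 4 h at 37 C, given compound (0.59 nM to 92 uM) plus 0.4 nM T3 (final) for 18 h, then CCF4 for 2 h at RT; Hill fit gave IC50.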

[18] = qHTS assay for small molecule agonists of the antioxidant response element (ARE) signaling pathway (AID 651741; active = well fitted activation curve with a large enough effect in the signal ratio; inconclusive = small, poorly fitted or top-dose-only effect, or effect the other way, or a change in a side signal; the % refers to the signal ratio; note: potency is the fitted concentration of half-maximal effect); conditions: HepG2 ARE-bla reporter, beta-lactamase FRET ratio, 16 h; activation: at 96 µM (top of the series)
Outline: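 Compounds in DMSO are pinned onto HepG2 ARE-bla cells (2,000/well) that were preincubated 5 h; plates stay 16 h at 37 C, then beta-lactamase activity is detected with LiveBLAzer B/G substrate by fluorescence.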

[19] = qHTS assay for small molecule activators of the p53 signaling pathway (AID 651743; active = well fitted activation curve with a large enough effect in the signal ratio, not every such curve was filed as active; inconclusive = small, poorly fitted or top-dose-only effect, or a change in a side signal; the % refers to the signal ratio; note: potency is the fitted concentration of half-maximal effect); conditions: HCT-116 p53RE-bla, beta-lactamase FRET ratio, 16 h; activation: hits give high values
Outline: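 Cell-based beta-lactamase reporter (p53 response elements, HCT-116 background). After a 5-hour preincubation, cells received compound for 16 hours at 37 C; substrate development ran 2 hours at room temperature.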

[20] = qHTS for Activators of Parkin Expression: LOPAC Validation Assay (NLuc Reporter) (AID 720572; active = well fitted curve in the direction sought with a large enough effect; inconclusive = small, poorly fitted or top-dose-only effect, or another doubt; inactive = no such curve, though single readings can be large; an effect the other way counts as inactive or inconclusive; note: potency is the fitted concentration of half-maximal effect)
Outline: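 Neuronal line stably carrying a FLuc/NLuc coincidence reporter under the Parkin promoter, seeded 24 h, then dosed in 7-point series for 24 h at 37 C. NLuc luminescence read after FLuc; normalized to DMSO and positive control (100%).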

[21] = tested on: Zika virus NS2B-NS3 protease (unlinked); experiment: Optimization of GU AMC qHTS for Zika virus inhibitors: Unlinked NS2B-NS3 protease assay (AID 1347151; active = well fitted curve in the direction sought with a large enough effect; inconclusive = small, poorly fitted or top-dose-only effect, or another doubt; inactive = no such curve, though single readings can be large; an effect the other way counts as inactive or inconclusive; note: potency is the fitted concentration of half-maximal effect; nearly all actives have a fitted effect of over 80% in size); conditions: recombinant ZIKV NS2B-NS3 protease, fluorogenic AMC substrate; activity change, negative = inhibition: at 52.5 µM (top of the series) unless noted
Outline: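 Noncovalent NS2B hydrophilic domain–NS3 protease complex (25 nM final) in 10 mM Tris-HCl pH 8.0, 0.01% Tween 20; AMC substrate, room temperature 15 min (~20% conversion); fluorescence change normalized, 4-parameter Hill fit.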

[22] = tested on: Zika virus NS2B-NS3 protease; experiment: Primary screen GU AMC qHTS for Zika virus inhibitors (AID 1347154; active = well fitted curve in the direction sought with a large enough effect; inconclusive = small, poorly fitted or top-dose-only effect, or another doubt; inactive = no such curve, though single readings can be large; an effect the other way counts as inactive or inconclusive; note: potency is the fitted concentration of half-maximal effect; nearly all actives have a fitted effect of over 70% in size)
Outline: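 Unlinked Zika NS2B hydrophilic domain/NS3 protease domain noncovalent complex (25 nM final) in 10 mM Tris-HCl pH 8.0, 0.01% Tween 20, with AMC peptide substrate. Fluorescence (ex 340, em 450 nm) change over 15 min, room temperature; percent inhibition fitted to 4-parameter Hill equation.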

[23] = target: Lysine-specific demethylase 5B (Homo sapiens) (UniProt Q9UGL1); experiment: Optimization screen for KDM5B Histone Demethylases FDH coupled qHTS against the LOPAC library (AID 1347166; active = well fitted curve in the direction sought with a large enough effect; inconclusive = small, poorly fitted or top-dose-only effect, or another doubt; inactive = no such curve, though single readings can be large; an effect the other way counts as inactive or inconclusive; note: potency is the fitted concentration of half-maximal effect); conditions: KDM5B demethylation, FDH-coupled NADH fluorescence (FDH is formaldehyde dehydrogenase); activity, negative = inhibition: at 57.5 µM (top of the series) unless noted
UniProt Q9UGL1, sequence (Q9UGL1 whole entry, looked up): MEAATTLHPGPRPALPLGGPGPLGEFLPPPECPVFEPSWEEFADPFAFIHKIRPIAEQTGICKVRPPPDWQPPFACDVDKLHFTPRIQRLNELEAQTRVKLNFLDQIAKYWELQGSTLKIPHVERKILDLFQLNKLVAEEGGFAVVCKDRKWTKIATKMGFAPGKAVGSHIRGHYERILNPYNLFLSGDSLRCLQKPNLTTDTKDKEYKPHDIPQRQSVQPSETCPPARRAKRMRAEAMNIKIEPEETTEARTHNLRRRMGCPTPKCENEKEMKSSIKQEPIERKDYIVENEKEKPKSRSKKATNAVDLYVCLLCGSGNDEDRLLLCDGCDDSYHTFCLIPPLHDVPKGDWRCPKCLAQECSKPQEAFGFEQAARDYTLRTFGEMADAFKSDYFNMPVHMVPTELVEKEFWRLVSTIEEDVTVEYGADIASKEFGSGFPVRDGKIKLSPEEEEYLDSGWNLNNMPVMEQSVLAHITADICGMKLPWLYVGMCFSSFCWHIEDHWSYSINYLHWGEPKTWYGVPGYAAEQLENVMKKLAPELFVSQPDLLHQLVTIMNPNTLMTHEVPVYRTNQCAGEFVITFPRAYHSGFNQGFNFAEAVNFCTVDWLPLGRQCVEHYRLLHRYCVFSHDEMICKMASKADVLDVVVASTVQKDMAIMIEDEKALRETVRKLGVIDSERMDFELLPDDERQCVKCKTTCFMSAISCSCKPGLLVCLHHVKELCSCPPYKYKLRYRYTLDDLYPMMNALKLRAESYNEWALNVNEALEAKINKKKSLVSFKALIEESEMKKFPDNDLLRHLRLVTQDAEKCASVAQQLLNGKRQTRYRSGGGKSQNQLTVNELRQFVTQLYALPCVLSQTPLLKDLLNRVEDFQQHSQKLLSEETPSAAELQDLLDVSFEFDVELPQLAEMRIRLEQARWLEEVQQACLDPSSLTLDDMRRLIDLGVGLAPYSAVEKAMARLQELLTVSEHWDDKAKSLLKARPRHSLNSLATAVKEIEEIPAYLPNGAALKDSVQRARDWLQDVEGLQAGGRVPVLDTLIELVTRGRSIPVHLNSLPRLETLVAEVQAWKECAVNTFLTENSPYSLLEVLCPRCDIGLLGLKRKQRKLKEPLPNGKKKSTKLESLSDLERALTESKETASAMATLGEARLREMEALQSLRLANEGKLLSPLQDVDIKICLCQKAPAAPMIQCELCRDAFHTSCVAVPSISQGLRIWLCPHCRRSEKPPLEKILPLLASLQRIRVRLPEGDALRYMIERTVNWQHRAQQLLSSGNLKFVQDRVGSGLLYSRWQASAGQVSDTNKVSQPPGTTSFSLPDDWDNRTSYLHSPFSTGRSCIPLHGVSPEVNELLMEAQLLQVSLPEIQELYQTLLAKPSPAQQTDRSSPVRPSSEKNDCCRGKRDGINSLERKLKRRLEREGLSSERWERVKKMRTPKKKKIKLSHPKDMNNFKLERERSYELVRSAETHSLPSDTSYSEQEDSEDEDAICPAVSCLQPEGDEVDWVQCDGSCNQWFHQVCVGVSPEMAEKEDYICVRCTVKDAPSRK
Outline: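 KDM5BDeltaAP (200nM final) preincubated 10 min with compound, then 12.5uM H3K4Me3, 25uM a-ketoglutarate, ascorbate, Fe(II), NAD+ and FDH added; 50mM HEPES pH 7.5, 0.01% Tween-20. NADH fluorescence (340/450 nm) change over 30 min, room temperature.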

[24] = target: Phospholipid hydroperoxide glutathione peroxidase GPX4 (Homo sapiens) (UniProt P36969); experiment: Primary qHTS Assay for Inhibitors of Recombinant Selenoprotein Glutathione Peroxidase 4 (GPX4) (AID 1845192; active = well fitted curve in the direction sought with a large enough effect; inconclusive = small, poorly fitted or top-dose-only effect, or another doubt; inactive = no such curve, though single readings can be large; an effect the other way counts as inactive or inconclusive; note: % is set by controls: 0 for no effect and ±100 for the full control effect; nearly all actives have a fitted effect of over 65% in size)
UniProt P36969, sequence (P36969 whole entry, looked up): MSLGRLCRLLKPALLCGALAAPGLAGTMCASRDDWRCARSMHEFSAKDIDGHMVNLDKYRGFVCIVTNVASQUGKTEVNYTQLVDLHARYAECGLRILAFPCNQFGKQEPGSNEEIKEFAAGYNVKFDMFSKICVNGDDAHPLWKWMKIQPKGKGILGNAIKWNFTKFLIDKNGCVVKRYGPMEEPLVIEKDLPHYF
Outline: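 GR-coupled readout: 100 nM GR, 1 mM GSH, 0.5 mM NADPH; NADPH fluorescence (ex 340/em 450 nm) read at t=0 and after 15 min RT. GPX4 200 nM, preincubated 30 min with compound; substrate 0.5 mM CHP.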
Tags give direction and shape of the fitted curve or compound fluorescence and quenching.

CCCc1c(-c2ccc(O)cc2)nn(-c2ccc(O)cc2)c1-c1ccc(O)cc1
inactive: Potency [24]
inconclusive: Potency [1] 39.8 µM [inhibitor, single point] | Potency [2] 12.6 µM [fluorescent, side channel, partial curve, poor fit] | Potency [4] 6.31 µM [side channel, rising, partial curve, poor fit] | activity change, negative = inhibition [5] -79.9% | Potency [6] 44.7 µM [inhibitor, single point] | Potency [7] 14.1 µM [side channel, rising, partial curve, poor fit] | Potency [9] 35.5 µM [side channel, rising, partial curve] | activity change, negative = inhibition [10] -15.4% | Potency [11] 25.1 µM [inhibitor, full curve] | Potency [13] 39.8 µM [side channel, rising, partial curve, poor fit] | Potency [14] 12.6 µM [inhibitor, partial curve, poor fit] | Potency [15] 35.5 µM [side channel, falling, partial curve, poor fit] | Potency [16] 15.8 µM [inhibitor, partial curve, poor fit] | activity change % (negative = inhibition) [17] -32.3% [cytotoxic] | Potency [18] 48.6 µM [cytotoxic, side channel, partial curve] | Potency [19] 50.1 µM [side channel, falling, partial curve, poor fit] | Potency [21] 23.8 µM [inhibitor, partial curve] | Potency [22] 26.7 µM [inhibitor, single point] | Potency [23] 25.1 µM [inhibitor, single point]
active: Potency [3] 0.0112 µM | Potency [8] 28.2 µM | Potency [12] 22.4 µM | Potency [20] 2.06 µM

From PubChem BioAssay (NCATS)
